Laboratory results: PubChem BioAssay AID1745853 (National Center for Advancing Translational Sciences (NCATS), 2022)
This is one part of the list. The main result of the screen is listed elsewhere. These columns were measured beside it and carry no call.

What was measured:
Test in all cases: Primary Screen for Target Class Profiling of Small Molecule Inhibitors of Methyltransferases
[1] = molecular target: Glycine N-methyltransferase (Homo sapiens) (UniProt Q14749); details: purified enzyme, MTase-Glo SAH luminescence; measured here: GNMT inhibition; at 40 µM; stronger effect = lower value
In short: (§1)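 Each enzyme was assayed with SAM and its substrate. SAH formation detected by MTase-Glo luminescence; single-point 40 uM screen[…].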

[2] = molecular target: Guanidinoacetate N-methyltransferase (Homo sapiens) (UniProt Q14353); details: purified enzyme, MTase-Glo SAH luminescence; measured here: GAMT inhibition; at 40 µM; stronger effect = lower value
In short: as §1

[3] = molecular target: Histamine N-methyltransferase (Homo sapiens) (UniProt P50135); details: purified enzyme, MTase-Glo SAH luminescence; measured here: HNMT inhibition; at 40 µM; stronger effect = lower value
In short: as §1

[4] = molecular target: Nicotinamide N-methyltransferase (Homo sapiens) (UniProt P40261); details: purified enzyme, MTase-Glo SAH luminescence; measured here: NNMT inhibition; at 40 µM; stronger effect = lower value
In short: as §1

[5] = molecular target: Phenylethanolamine N-methyltransferase (Homo sapiens) (UniProt P11086); details: purified enzyme, MTase-Glo SAH luminescence; measured here: PNMT inhibition; at 40 µM; stronger effect = lower value
In short: as §1
On the % scale 0 is the no-effect control and ±100 the full control effect.

Structure (SMILES) | activity change, negative = inhibition [1] [%] | activity change, negative = inhibition [2] [%] | activity change, negative = inhibition [3] [%] | activity change, negative = inhibition [4] [%] | activity change, negative = inhibition [5] [%]
CN1CCN(c2cccc(Nc3nc4c(-c5ccc(S(C)(=O)=O)cc5)cccn4n3)c2)CC1 | -6.93 | 4.67 | -6.83 | -12.2 | -12.5
COc1ccc(CN2CCCC3(C2)CN(C)C(=O)O3)cc1C(=O)O (stereo not given) | -2.83 | -2.67 | -1.46 | -7.63 | -0.403
COc1ccccc1Nc1ccnc(N2CCCC(C(=O)NCc3cccc(Cl)c3)C2)n1 (stereo not given) | -4.61 | -0.277 | 0.084 | -8.59 | -7.45
C=C(C)C(=O)O[C@H]1[C@H]2C(=C)C(=O)O[C@@H]2C[C@@H](C)[C@@H]2O[C@@H]2C(=O)[C@](C)(O)[C@@H]1OC(=O)C(=C)C | -1.49 | -0.082 | 11 | -13 | -6.29
CC/C=C\CC1C(=O)CCC1CC(=O)OC (stereo not given) |  | 10.1 |  | -5.1 | 6.31
CNCC[C@H](Oc1ccc(C(F)(F)F)cc1)c1ccccc1 | -6.57 | 1.48 | -4.26 | -15.1 | 2.37
COc1cccc(Cn2nc3n(C(C)C)c(=O)c4ccc(C(=O)NC(C)C)cc4n3c2=O)c1 | -2.2 | 0.629 | 7.32 | -4.46 | 3.61
Cc1cc2[nH]c(=O)[nH]c2cc1S(=O)(=O)Nc1cccc(F)c1 | 13 | 0 | 11.5 | -1.63 | 3.62
CCOCCCNc1nc2c(S(=O)(=O)c3ccc(C)c(C)c3)nnn2c2ccccc12 | -1.51 | 2.08 | 1.58 | 2.84 | -1.55
Cc1ccc(NC(=O)CC2CCN(S(C)(=O)=O)C2)cc1 (stereo not given) | -2.63 | -0.986 | -0.011 | -1.94 | 1.28
C[S+](=O)([O-])CCn1ncc2cc(OCC3CCN(Cc4ccccc4)CC3)ccc21 | -9.99 | -11.9 | -39.5 | -32 | -8.81
CC1(C(=O)NC2CCCCCCC2)Cn2c(cc3sccc32)C(=O)N1c1cccc(Cl)c1 (stereo not given) | -1.96 | 1.22 | 3.65 | 1.9 | -3.54
CC1(C)C(O)CCC2(C)C1C(O)C=C1COC(=O)C12O (stereo not given) | 0 | -2.57 | -1.91 | -13 | -1.93
CCC(C)NC(=O)Cn1nc2n(C(C)C)c(=O)c3ccc(C(=O)NC4CCCC4)cc3n2c1=O (stereo not given) | 5.32 | 0 | 2.96 | 0.36 | 0.437
OCCc1ccc(O[C@@H]2O[C@H](CO)[C@@H](O)[C@H](O)[C@H]2O)c(O)c1 | -1.36 | -5.18 | 4.64 | -16.5 | 0.421
Cc1cc(C)c2c(N3CCCC(OCc4cccnc4)C3)ncnc2n1 (stereo not given) | -14.3 | -6.7 | -10.4 | -13.4 | -6.84
CCS(=O)(=O)Nc1ccc(C)n(CC(=O)N(C)Cc2ccccc2)c1=O | -5.31 | -3.98 | -0.946 | -3.6 | -2.82
NCCCC[C@H](NC(=O)[C@@H]1Cc2ccccc2CN1C(=O)CCC(=O)c1ccccc1)C(=O)NCC(c1ccccc1)c1ccccc1 | 1.54 | 3.58 | 4.47 | -16.4 | 3.09
O=C(c1nc(-c2cc(Cl)cc(Cl)c2)c2ccccn12)N1CCCC1 | -6.41 | -8.67 | -4.04 | -32.8 | -7.18

Structure (SMILES) | activity change, negative = inhibition [1] [%] | activity change, negative = inhibition [2] [%] | activity change, negative = inhibition [3] [%] | activity change, negative = inhibition [4] [%] | activity change, negative = inhibition [5] [%]
COc1ccc(CCNc2nc3c(-c4cccc(F)c4)nnn3c3ccccc23)cc1OC | -34.9 | -2.74 | -2.46 | -15.6 | -4.64
CC(=O)OCC(=O)[C@@]1(O)CC[C@H]2[C@@H]3CCC4=CC(=O)CC[C@]4(C)[C@H]3C(=O)C[C@@]21C | 1.86 | 8.1 | 0.807 | -5.99 | -0.573
CN1C(=O)c2cc(C(=O)NCCCN3CCCCC3)nn2CC1(C)C(=O)NC1CCCCC1 (stereo not given) | 2.38 | 5.89 | -3.93 | 6.01 | 0.153
CCCC1c2cccn2CCN1C(=O)Nc1ccc(C)c(F)c1 (stereo not given) | -5.79 | 0.704 | -22.4 | -7.65 | 1.72
CC(C)CCn1c(=O)c2ccc(C(=O)NC3CCCCC3)cc2n2c(=O)n(CC(=O)NC(C)C)nc12 | 0.801 | 3.7 | -0.504 | -5.51 | -1.49
O=C(NC1CC1)c1nc(-c2cccnc2)c2cnccn12 | -6.33 | -1.09 | -3.26 | -12.9 | 1.08
Cn1cc(CNC(=O)C[C@@H]2C[C@H]3O[C@H](CNC4CCCC4)[C@@H](O)[C@H]3O2)cn1 | 1.28 | 2.08 | 3.06 | -2.5 | 2.2
CCc1nc(C(N)=O)c(Nc2ccc(N3CCC(N4CCN(C)CC4)CC3)c(OC)c2)nc1NC1CCOCC1 | -52.8 | -8.17 | -57.1 | -18.3 | -20.1
Cn1cc(C(=O)OCC2CCN(CCNS(C)(=O)=O)CC2)c2ccccc21 | 2.11 | 6.64 | 1.78 | -6.97 | 1.12
CC1CCCCN1Cc1nnc2cc(-c3nc(-c4ccccc4)no3)ccn12 (stereo not given) | -1.23 | 1.91 | 0.105 | -0.225 | 13.4
CN(C1CCCc2ccccc21)S(=O)(=O)c1cccc(C(F)(F)F)c1 (stereo not given) | -4.45 | -2.24 | -0.431 | -9.96 | -4.87
CC1(C)NC(=O)N(CC(=O)N[C@H](Cc2ccccn2)C2CC(O)C2)C1=O (stereo not given in full) | -0.807 | 3.8 | 0.984 | -2.87 | 15.8
COc1c(F)ccc(C(=O)N2CCC3(CCCNC3)C2)c1F (stereo not given) | -4.17 | -2.26 | -1.05 | -5.73 | -17.4
COc1ccccc1N1C(=O)CSc2c(c3ccccc3n2C)C1C(=O)NCc1ccc(F)cc1 (stereo not given) | -6.99 | -0.793 | 2.75 | -2.7 | -1.83
CC(C)(O)/C=C1/C(=O)C(C)(C)C(=O)C(C)(C)C1(O)O[C@@H]1O[C@H](COC(=O)c2cc(O)c(O)c(O)c2)[C@@H](O)[C@H](O)[C@H]1O (stereo not given in full) | -0.039 | -17.9 | 0.237 | -27.3 | -3.7
CN(Cc1ccccc1)C(=O)Cn1c(=O)oc2cc(S(=O)(=O)N3CCCCC3)ccc21 | -5.1 | 4.37 | -2.32 | 2.69 | -6.48
COc1ccccc1OC1(C(=O)O)CCN(Cc2ccc(-c3ccn[nH]3)o2)CC1 | -3.91 | -2.73 | 1.31 | -0.92 | -18.1
CC(C)CN1CCN(C(=O)CC2CCN(S(C)(=O)=O)C2)CC1 (stereo not given) | -3.72 | -4.71 | -2.91 | -6.49 | -10.3
CN1CCC2(CCN3CCc4c(oc5ccccc45)C3C2)N(C)C1=O (stereo not given) | -2.91 | 14.3 | 1.74 | -1.58 | 9.22

Structure (SMILES) | activity change, negative = inhibition [1] [%] | activity change, negative = inhibition [2] [%] | activity change, negative = inhibition [3] [%] | activity change, negative = inhibition [4] [%] | activity change, negative = inhibition [5] [%]
CC(C)NC(=O)N1CC[C@H](N=C2Nc3cc(F)ccc3N(CC(F)F)c3ccc(Cl)cc32)C1 | 1.96 | 4.48 | 5.14 | -9.62 | 0.694
O=C(NCc1ccccc1-c1ccccc1C(=O)NCCc1ccccn1)OCc1ccccc1 | -4.11 | 5.67 | 11.7 | -13.4 | -0.904
Cc1cc2c(cc3n2CC(C)(C(=O)NC2CCCCCCC2)N(CCN(C)C2CCCCC2)C3=O)o1 (stereo not given) | 1.35 | 4.84 | 3.18 | 7.83 | 0.335
Cc1cc(NC(=O)CN(C)S(=O)(=O)c2ccc3[nH]c4c(c3c2)CCCC4)ccc1Br | 0.612 | 3.93 | 2.83 | -4.75 | 8.95
O=c1c2ccccc2n2c(=O)n(Cc3c(F)cccc3Cl)nc2n1Cc1ccc(F)cc1 | 9.62 | 2.55 | 9.77 | 12.3 | 9.61
COc1ccccc1CCNC(=O)c1ncn2c1C(=O)N(C1CC1)C(C)(C(=O)NC1CCCC1)C2 (stereo not given) | 2.13 | 0 | 8.84 | 1.28 | 4.07
CCc1ccc(N2C(=O)c3cc4sccc4n3CC2(C)C(=O)NC2CCCCCCC2)cc1 (stereo not given) | -1.12 | 3.52 | 3.1 | 8.12 | -1.61
CCCNC(=O)Cn1nc2nc(Nc3ccc(F)cc3)ccn2c1=O | -6.95 | 1.52 | -1.96 | -4.79 | -4.62
CC(C)Cn1c(=O)c2ccccc2n2c(SCC(=O)Nc3cccc(F)c3)nnc12 | -0.804 | 0 | 7.03 | 1.76 | 3.01
CC(C)NC(=O)c1ccc2c(=O)n(Cc3ccccc3)c3nn(CC(=O)Nc4ccccc4)c(=O)n3c2c1 | -1.65 | -2.36 | -1.11 | -6.14 | -4.2
COc1ccc(N2CCN(C(CNS(=O)(=O)c3ccc(OC)cc3)c3ccco3)CC2)cc1 (stereo not given) | 11.6 | 0.267 | 8.82 | -1.38 | 4.28
CC[C@]1(O)C[C@H]2CN(CCC3C(=Nc4ccccc43)[C@@](C(=O)OC)(c3cc4c(cc3OC)N(C)[C@H]3[C@@](O)(C(N)=O)[C@H](O)[C@]5(CC)C=CCN6CC[C@]43[C@@H]65)C2)C1 (stereo not given in full) | -30.9 |  | -5.52 |  | 
C[C@@H](CN1CCC(n2c(=O)[nH]c3cc(Cl)ccc32)CC1)NC(=O)c1ccc2ccccc2c1 | -3.86 | 0.532 | 3.47 | -34.1 | -13.2
CC1(C)CC[C@]2(C(=O)O[C@@H]3O[C@H](CO[C@@H]4O[C@H](CO)[C@@H](O)[C@H](O)[C@H]4O)[C@@H](O)[C@H](O[C@@H]4O[C@H](CO)[C@@H](O)[C@H](O)[C@H]4O)[C@H]3O)CC[C@]3(C)C(=CCC4[C@@]5(C)CC[C@H](O[C@@H]6OC[C@@H](O)[C@H](O)[C@H]6O)[C@@](C)(C(=O)O)C5CC[C@]43C)[C@@H]2C1 (stereo not given in full) | -2.06 | -2.64 | 4.56 | -14.8 | -0.877
CCc1ccc(-c2cc3n(n2)CC(C)(C(=O)NC2CCCCC2)N(CCN2CCCC2)C3=O)cc1 (stereo not given) | -2.21 | 2.97 | -4.5 | 0.43 | -3.07
CCCc1cc(C)n(C)c(=O)c1CN(C)C(=O)c1cc(-c2ccc(N3CCN(C(C)C)CC3)nc2)cc2c1cnn2C(C)C | 5.26 | 8.98 | -13.5 | -12.1 | -2.04
CCCC(=O)C1(c2ccccc2)CCN(C(=O)[C@@H](Cc2ccc(OC)cc2)NC(=O)[C@@H](N)Cc2cncn2C)CC1 | 2.93 | -3.37 | -4.68 | -18.7 | -10.6
Cc1cc(O)c(C(C)C)cc1O[C@@H]1O[C@H](CO)[C@@H](O)[C@H](O)[C@H]1O | 0 | 8.6 | 9.28 | -3.54 | 5.64
